{"source": "PubChem BioAssay AID1460", "about": "(National Center for Advancing Translational Sciences (NCATS), 2008)", "note": "The campaign covered roughly 270,000 compounds. About 5,800 (2.1%) were called active. This list was built around the results that the source calls inconclusive (neither active nor inactive); the mix of calls is not that of the screen. Calls come from the whole dose curve; as a rule, active = well fitted inhibition curve with a large enough effect; inconclusive = small, poorly fitted or top-dose-only effect; inactive = flat fitted curve, though single readings scatter. Where the call is inconclusive, the potency comes from a doubtful curve fit. % is set by controls: 0 for no effect and ±100 for the full control effect; potency is the fitted concentration of half-maximal effect; tags give direction and shape of the fitted curve."}
{"target": "Microtubule-associated protein tau (Homo sapiens) (UniProt P10636)", "sequence (P10636 whole entry, looked up)": "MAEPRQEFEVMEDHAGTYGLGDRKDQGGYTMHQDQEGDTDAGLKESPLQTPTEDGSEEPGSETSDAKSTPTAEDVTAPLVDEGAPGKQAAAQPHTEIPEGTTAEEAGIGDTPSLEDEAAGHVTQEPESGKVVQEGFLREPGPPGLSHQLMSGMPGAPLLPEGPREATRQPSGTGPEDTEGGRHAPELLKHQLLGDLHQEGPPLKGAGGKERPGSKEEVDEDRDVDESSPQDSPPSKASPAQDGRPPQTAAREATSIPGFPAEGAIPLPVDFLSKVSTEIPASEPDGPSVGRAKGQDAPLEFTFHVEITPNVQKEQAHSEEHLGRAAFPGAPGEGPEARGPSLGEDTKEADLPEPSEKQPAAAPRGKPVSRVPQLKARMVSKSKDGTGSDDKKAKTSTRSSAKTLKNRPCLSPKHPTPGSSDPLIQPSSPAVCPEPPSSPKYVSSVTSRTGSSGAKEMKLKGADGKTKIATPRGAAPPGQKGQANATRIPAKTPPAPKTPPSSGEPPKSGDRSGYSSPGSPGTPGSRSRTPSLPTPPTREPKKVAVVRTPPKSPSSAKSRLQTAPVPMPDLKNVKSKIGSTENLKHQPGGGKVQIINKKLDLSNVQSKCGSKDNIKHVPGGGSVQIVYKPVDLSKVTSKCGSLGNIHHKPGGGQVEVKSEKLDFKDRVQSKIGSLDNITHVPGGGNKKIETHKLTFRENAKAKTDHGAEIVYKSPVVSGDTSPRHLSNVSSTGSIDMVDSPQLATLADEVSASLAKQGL", "assay": "qHTS for Inhibitors of Tau Fibril Formation, Thioflavin T Binding; note: nearly all actives have a fitted effect of over 55% in size", "conditions": "recombinant tau K18 P301L, heparin-induced fibrillization, ThT fluorescence; series mostly up to 57.4 µM; activity, negative = inhibition: at the top concentration", "in_short": "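ThT emission at 510 nm, taken 1 hr after adding 30 uM dye, quantifies aggregates formed when 20 uM heparin acts on human tau K18 P301L for 6 hr at 37 C.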"}
{"smiles": "Cc1oc2ncn(C)c(=O)c2c1C(=O)NC(C)c1ccccc1", "note": "(stereo not given)", "activity, negative = inhibition": "inactive: -1.25%"}
{"smiles": "Cc1ccc(N2C(=O)CC(Sc3ccccc3C(=O)O)C2=O)c([N+](=O)[O-])c1", "note": "(stereo not given)", "Potency": "inconclusive: 28.2 µM [inhibitor, partial curve]"}
{"smiles": "CC(=O)N1CCc2cc(N=NC3=C(O)CC(C)(C)CC3=O)ccc21", "Potency": "inconclusive: 15.8 µM [inhibitor, partial curve]"}
{"smiles": "Cc1cccc(Cn2cnc3c(nnn3Cc3ccc(F)cc3)c2=O)c1", "activity, negative = inhibition": "inactive: 2.26%"}
{"smiles": "COc1ccc(/C=C/c2ccc(=O)n(Cc3ccccc3)n2)cc1", "Potency": "inconclusive: 28.2 µM [inhibitor, single point]"}
{"smiles": "Cc1ccc(CSCc2ccc(C(=O)NCCc3ccc(Cl)cc3)o2)cc1", "activity, negative = inhibition": "inactive: -16.3%"}
{"smiles": "O=C(CC(c1ccccc1)c1ccccc1O)NCc1ccccc1Cl", "note": "(stereo not given)", "activity, negative = inhibition": "inactive: -0.081%"}
{"smiles": "Cc1ccc(C(=O)Nc2nnc(-c3cccs3)s2)cc1C", "activity, negative = inhibition": "inactive: 4.48%"}
{"smiles": "Cc1nc2[nH]c(=S)[nH]c2cc1Br", "activity, negative = inhibition": "inactive: -6.85%"}
{"smiles": "COc1ccc(-n2nnnc2SCC(=O)Nc2ccccc2N2CCOCC2)cc1OC", "Potency": "active: 10 µM"}
{"smiles": "O=C(/C=C/c1ccc([N+](=O)[O-])cc1)N(c1ccccn1)C1CCCCC1", "Potency": "inconclusive: 11.2 µM [inhibitor, partial curve]"}
{"smiles": "O=C(NCCNc1cc(Cl)ccc1[N+](=O)[O-])c1ccco1", "Potency": "inconclusive: 15.8 µM [inhibitor, partial curve]"}
{"smiles": "Cc1c(C)n(C)c2ccc(C(=O)Nc3cccc4ccccc34)cc12", "Potency": "inconclusive: 10 µM [inhibitor, partial curve]"}
{"smiles": "Nc1cccc2nc3ccccc3cc12", "activity, negative = inhibition": "inactive: -17.3%"}
{"smiles": "CCOC(=O)c1c(NC(=O)/C=C/c2ccc3c(c2)OCO3)sc(C)c1CC", "Potency": "inconclusive: 22.4 µM [inhibitor, partial curve]"}
{"smiles": "Cc1ccccc1NC1(C#N)C(=O)Nc2ccccc21", "note": "(stereo not given)", "Potency": "inconclusive: 22.4 µM [inhibitor, partial curve]"}
{"smiles": "COc1ccc2c(Cl)c(C(=O)NN)sc2c1", "Potency": "inconclusive: 11.2 µM [inhibitor, partial curve]"}
{"smiles": "C[C@@](O)(/C=C/[C@H]1CC=CC(=O)O1)[C@@H](C[C@@H](O)\\C=C/C=C\\C=C\\CO)OP(=O)(O)O", "Potency": "inconclusive: 2.51 µM [inhibitor, partial curve]"}
{"smiles": "COC(=O)c1c(SCC(=O)Nc2cc(C)cc(C)c2)[nH]c2ccccc2c1=O", "Potency": "inconclusive: 12.6 µM [inhibitor, partial curve]"}
{"smiles": "O=C(Nc1nnc(CSCc2ccccc2F)s1)c1cccc([N+](=O)[O-])c1", "activity, negative = inhibition": "inactive: -12%"}
{"smiles": "O=C(Oc1cccnc1)c1ccc([N+](=O)[O-])cc1", "Potency": "inconclusive: 7.94 µM [inhibitor, partial curve]"}
{"smiles": "CCc1ccc2occ(CC(=O)Nc3c(C(=O)Nc4ccc(C)cc4)oc4ccccc34)c2c1", "activity, negative = inhibition": "inactive: 1.17%"}
{"smiles": "Cc1c(N=C2NN=C(c3ccc(Cl)cc3)CS2)c(=O)n(-c2ccccc2)n1C", "Potency": "inconclusive: 35.5 µM [inhibitor, single point]"}
{"smiles": "COc1ccc(OC)c(NC(=O)C2CCC(CNc3c(N4CCC(C)CC4)c(=O)c3=O)CC2)c1", "note": "(stereo not given)", "Potency": "inconclusive: 31.6 µM [inhibitor, single point]"}
{"smiles": "CCn1c(SCc2nc3sc(C(=O)O)c(C)c3c(=O)[nH]2)nc2ccccc21", "Potency": "inconclusive: 10 µM [inhibitor, partial curve]"}
{"smiles": "O=C(/C=C/Nc1ccc(Nc2ccccc2)cc1)c1cccs1", "Potency": "active: 1.26 µM"}
{"smiles": "COc1cc2[nH]c(=S)nc(NCc3cccs3)c2cc1OC", "Potency": "inconclusive: 25.1 µM [inhibitor, single point]"}
{"smiles": "O=C(Cc1c(O)c2ccccc2[nH]c1=O)NCc1ccccc1F", "activity, negative = inhibition": "inactive: 6.83%"}
{"smiles": "COc1ccc(C(=O)Nc2nc3nccc(-c4ccccc4)n3n2)cc1", "Potency": "inconclusive: 2.24 µM [inhibitor, partial curve]"}
{"smiles": "COc1ccc(-c2cn3nc(N4CCCC(C(=O)Nc5ccc(C)c(C)c5)C4)sc3n2)cc1", "note": "(stereo not given)", "Potency": "inconclusive: 5.01 µM [inhibitor, partial curve]"}
{"smiles": "Nc1ccc(C(=O)Nc2ccc3nc(-c4ccncc4)[nH]c3c2)cc1", "Potency": "inconclusive: 4.47 µM [inhibitor, partial curve]"}
{"smiles": "FC(F)(F)c1cc(-c2ccccc2)nc2cc(-c3ccc(Br)cc3)nn12", "Potency": "inconclusive: 8.91 µM [inhibitor, full curve]"}
{"smiles": "COc1ccc2nc(Nc3nc4cc5c(cc4s3)OCO5)sc2c1", "Potency": "active: 2.82 µM"}
{"smiles": "O=C(O)C1Nc2c(O)cccc2C2C=CCC12", "note": "(stereo not given)", "Potency": "active: 12.6 µM"}
{"smiles": "Cc1ccc(-n2nnnc2CNC(=O)c2ccccc2S(C)(=O)=O)cc1C", "activity, negative = inhibition": "inactive: 8.55%"}
{"smiles": "Cc1ccc(CN2CCSc3ccc(C(=O)N4CCN(c5ncccn5)CC4)cc32)cc1", "Potency": "inconclusive: 11.2 µM [inhibitor, partial curve]"}
{"smiles": "CCOC(=O)/C=C1\\SCC(=O)N1CC(=O)NC(C)c1ccc(F)cc1", "note": "(stereo not given)", "Potency": "inconclusive: 20 µM [inhibitor, single point]"}
{"smiles": "COC(=O)CN1C(=O)C(O)(CC(=O)c2ccc(C)cc2)c2ccccc21", "note": "(stereo not given)", "activity, negative = inhibition": "inactive: -0.681%"}
{"smiles": "CCOC(=O)C1(C)Oc2ccccc2C(c2ccc(OC)cc2)=C1C(=O)OC", "note": "(stereo not given)", "activity, negative = inhibition": "inactive: -17.1% [at 81.4 µM]"}
{"smiles": "O=C(N/N=C/c1coc2ccccc2c1=O)c1ccccc1Br", "Potency": "inconclusive: 15.8 µM [inhibitor, single point]"}
{"smiles": "CNc1cc([N+](=O)[O-])ccc1N/C=C/C(=O)c1ccc2c(c1)OCO2", "Potency": "active: 3.55 µM"}
{"smiles": "CCOc1ccc(NC(=O)NCCCN2CCN(c3ccc(F)cc3)CC2)cc1", "Potency": "inconclusive: 12.6 µM [inhibitor, partial curve]"}
{"smiles": "O=C1C(Nc2ccc(O)cc2)=C/C(=N/S(=O)(=O)c2cccs2)c2ccccc21", "Potency": "active: 12.6 µM"}
{"smiles": "COC(=O)N/N=C/c1ccc(-c2ccccc2Cl)o1", "Potency": "inconclusive: 17.8 µM [inhibitor, partial curve]"}
{"smiles": "Cc1ccc(CNC(=O)c2ccc3c(=O)[nH]c4c(C(=O)NCC5CCCO5)sc(=S)n4c3c2)cc1", "note": "(stereo not given)", "Potency": "active: 8.91 µM"}
{"smiles": "CCn1nc(C)c(/C=N/NC(=O)c2ccoc2C)c1C", "Potency": "inconclusive: 0.178 µM [inhibitor, partial curve, poor fit]"}
{"smiles": "Cc1nnc(SCc2ccc(Cl)cc2)c2cc3occc3n12", "Potency": "inconclusive: 25.1 µM [inhibitor, single point]"}
{"smiles": "COC(=O)c1cn(C(=O)c2ccc(C)c(C)c2)c2ccccc12", "Potency": "inconclusive: 39.8 µM [inhibitor, single point]"}
{"smiles": "Cc1cc(S(=O)(=O)Nc2ccc(-c3ccc(N4CCCCC4)nn3)cc2)c(C)cc1Cl", "Potency": "inconclusive: 1.78 µM [inhibitor, full curve, poor fit]"}
{"smiles": "Cc1nc2c(sc3nc4c(cc32)COC(C)(C)C4)c(=O)n1CC(=O)NCc1ccco1", "Potency": "inconclusive: 39.8 µM [inhibitor, single point]"}
{"smiles": "Cc1nnc(SCC2=C(C(=O)O)N3C(=O)C(NC(=O)C(C)n4nc(C(F)(F)F)cc4C)C3SC2)s1", "note": "(stereo not given)", "Potency": "inconclusive: 14.1 µM [inhibitor, single point]"}
{"smiles": "CCOc1ccc(NC(=O)CSc2nnc(-c3ccccc3Cl)n2Cc2ccco2)cc1", "Potency": "inconclusive: 35.5 µM [inhibitor, single point]"}
{"smiles": "Cc1ccc(C(=O)n2nc(C)c(S(=O)(=O)N3CCOCC3)c2C)cc1", "activity, negative = inhibition": "inactive: -3.91%"}
{"smiles": "O=[N+]([O-])c1ccc(Oc2ccc(F)cc2Br)c2ccncc12", "Potency": "inconclusive: 28.2 µM [inhibitor, partial curve]"}
{"smiles": "COc1ccc(OCC(=O)Nc2ccc3c(c2)nc2n3CCSC2)cc1", "Potency": "inconclusive: 3.55 µM [inhibitor, partial curve]"}
{"smiles": "CN=C1N[C@H](c2ccccc2)N(c2ccccc2)S1", "Potency": "active: 20 µM"}
{"smiles": "O=C(C1CCCN(S(=O)(=O)c2cccc3nsnc23)C1)N1CCc2ccccc21", "note": "(stereo not given)", "Potency": "inconclusive: 39.8 µM [inhibitor, single point]"}
{"smiles": "COc1ccc(NS(=O)(=O)c2cc([N+](=O)[O-])ccc2N/N=C\\c2c(C)[nH]c3ccccc23)cc1", "Potency": "active: 2.51 µM"}
{"smiles": "Cc1cc2nc(-c3ccc(SCC(=O)Nc4ccc5c(c4)OCCO5)nc3)[nH]c2cc1C", "Potency": "inconclusive: 0.316 µM [inhibitor, full curve]"}
{"smiles": "COc1nc(Nc2nc3ccccc3c(=O)[nH]2)nc2ccc(C)cc12", "Potency": "inconclusive: 2.82 µM [inhibitor, full curve, poor fit]"}
{"smiles": "CCCc1sc(N/N=C/c2ccccn2)nc1-c1ccc(F)cc1", "Potency": "inconclusive: 15.8 µM [inhibitor, partial curve]"}
{"smiles": "C=CCNC(=S)Nc1ccc2cn[nH]c2c1", "Potency": "inconclusive: 39.8 µM [inhibitor, single point]"}
{"smiles": "Cc1ccccc1-n1c(SCC(=O)c2cc(C)n(C)c2C)nnc1-c1cccnc1", "activity, negative = inhibition": "inactive: -14%"}
{"smiles": "COc1ccc(/C=C/C(=O)c2ccoc2)cc1", "Potency": "inconclusive: 14.1 µM [inhibitor, partial curve]"}
{"smiles": "COc1ccc(/C=N/Nc2nc(-c3cccc(S(=O)(=O)N4CCCC4)c3)cs2)c(OC)c1", "Potency": "inconclusive: 7.94 µM [inhibitor, partial curve]"}
{"smiles": "COc1ccc(CCNC(=O)CN2C(=O)COc3ccc(C)cc32)cc1OC", "Potency": "inconclusive: 3.55 µM [inhibitor, single point]"}
{"smiles": "CCOC(=O)c1cnc2c(c(C)nn2C)c1Oc1cc(Cl)cc(Cl)c1", "Potency": "inconclusive: 10 µM [inhibitor, partial curve, poor fit]"}
{"smiles": "CC(=O)c1ccc2c(ccc3ccccc32)c1", "Potency": "inconclusive: 2.51 µM [inhibitor, full curve]"}
{"smiles": "CCCCN(CC)CCCNC(=O)CN1C(=O)CSc2ccc(S(=O)(=O)N3CCOCC3)cc21", "Potency": "inactive"}
{"smiles": "Cc1ccc(N/C=C/C(=O)c2ccco2)c(O)c1", "Potency": "active: 3.55 µM"}
